Reference: the domain aggregation screens of Martell et al. (2025)

Experiment: soluble fraction after stress (log2 fold change); higher = more stays soluble; pooled small domains, quantitative proteomics
Conditions: stress: 75 degC
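Note: 20 min heating vs room temperature control held 20 min.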

| Sequence | soluble fraction (log2) |
| --- | --- |
| HMRRLQTVVFQKGLATTIRQARQLINHGHIFVDGHKVTVPGYLVLREEEGSVAYNPASPFTDENHPM | -2.16 |
| HMTEEDLIEAFKIFDKDGNGVISAQELRHVMTTLGERLTEEEADEMIREADIDGDGYINYHEFVRIMM | -0.228 |
